T1: human TGFβ3 (human, UniProt P10600 301-412)
T1 construct: also called hTGFβ3
T1 sequence (looked up): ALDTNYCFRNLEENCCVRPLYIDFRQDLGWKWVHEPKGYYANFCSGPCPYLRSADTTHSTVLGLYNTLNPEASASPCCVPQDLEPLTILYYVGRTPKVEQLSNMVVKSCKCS

T2: human TGFβ2 (human, UniProt P61812 303-414)
T2 construct: also called hTGFβ2
T2 sequence (looked up): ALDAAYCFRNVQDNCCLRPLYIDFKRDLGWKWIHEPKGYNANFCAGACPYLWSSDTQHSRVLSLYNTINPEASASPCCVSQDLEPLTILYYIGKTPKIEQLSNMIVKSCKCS


Tests used:
[1] = target: T1, human TGFβ3; assay: ELISA, plate coated with 1 µg/ml human TGFβ3, HRP secondary antibody, OD 450 nm
[2] = target: T2, human TGFβ2; assay: ELISA, plate coated with 1 µg/ml human TGFβ2, HRP secondary antibody, OD 450 nm; the printed EC50 lies above the highest concentration shown (500 nM)
[3] = target: T2, human TGFβ2; assay: ELISA, plate coated with 1 µg/ml human TGFβ2, HRP secondary antibody, OD 450 nm
[4] = target: T3, human PD-L1 (human, UniProt Q9NZQ7); assay: flow cytometry on a mixture of CFSE-labelled OE19 and violet-labelled PD-L1 tf OE19 cells, share of each cell type among PE-positive cells
T3 construct: whole, on cells; also called PDL1 tf CHO-S; PD-L1 tf OE19
T3 sequence (Q9NZQ7 19-290): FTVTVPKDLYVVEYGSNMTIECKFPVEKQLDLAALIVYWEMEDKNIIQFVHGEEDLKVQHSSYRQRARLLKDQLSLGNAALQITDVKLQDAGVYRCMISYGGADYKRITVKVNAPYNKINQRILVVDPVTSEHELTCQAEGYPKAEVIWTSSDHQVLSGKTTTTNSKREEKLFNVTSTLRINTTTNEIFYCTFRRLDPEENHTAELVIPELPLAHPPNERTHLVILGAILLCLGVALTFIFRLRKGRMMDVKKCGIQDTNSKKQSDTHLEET

| Binder | EC50 [1] [nM] | EC50 [2] [nM] | binding result [3] | binding result [1] | binding result [4] |
| --- | --- | --- | --- | --- | --- |
| IgG4-TGFβ trap (Fc fusion, Control protein for the HCB301 proteins) [human IgG4 Fc with S228P (EU numbers) not shown]AGGGGSGGGGSGGGGSGGGGSGIPPHVQKSVNNDMIVTDNNGAVKFPQLCKFCDVRFSTCDNQKSCMSNCSITSICEKPQEVCVAVWRKNDENITLETVCHDPKLPYHDFILEDAASPKCIMKEKKKPGETFFMCSCSSDECNDNIIFSEEYNTSNPD | 0.63 | 990 |  |  |  |
| SIRPα_G4 (Fc fusion, Control protein; also called hSIRPα-G4Fc-wt (Trillium); TTI-622) not shown |  |  | no binding (tested: 500 nM) | no binding (tested: about 50 nM (last point on the axis)) | no binding (tested: 32 pM) |

— patent US20240360219A1 (FBD BIOLOGICS, published 2024)
